Source: PubChem BioAssay AID360 (National Center for Advancing Translational Sciences (NCATS), 2006)
The campaign covered roughly 48,000 compounds. About 550 (1.1%) were called active. Inconclusive results (about 4%) are left out. No stated cut-off is given here; in the data, active means potency below about 15 µM; inconclusive means mostly about 16 µM to 33 µM; inactive means weaker than that. This is one part of the list.

molecular target: Lysosomal acid glucosylceramidase (Homo sapiens) (UniProt P04062); assay: Glucocerebrosidase; conditions: purified enzyme, resorufin glucoside fluorescence (screen aimed at inhibitors), 20 min; series mostly up to 77 µM;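 further: the screen sought inhibitors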
How it was run: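 Wild-type enzyme at 0.2 nM final in 50mM citric acid/KH2PO4, 10mM sodium taurocholate, 0.01% tween-20, pH 5.9, with resorufin beta-D-glucopyranoside at 30 uM final. Compounds titrated, 20 min at RT, red fluorescence read; AC50 from titration.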
Potency means the concentration at half of the fitted maximal effect.

Chain of UniProt P04062 (P04062 whole entry, looked up): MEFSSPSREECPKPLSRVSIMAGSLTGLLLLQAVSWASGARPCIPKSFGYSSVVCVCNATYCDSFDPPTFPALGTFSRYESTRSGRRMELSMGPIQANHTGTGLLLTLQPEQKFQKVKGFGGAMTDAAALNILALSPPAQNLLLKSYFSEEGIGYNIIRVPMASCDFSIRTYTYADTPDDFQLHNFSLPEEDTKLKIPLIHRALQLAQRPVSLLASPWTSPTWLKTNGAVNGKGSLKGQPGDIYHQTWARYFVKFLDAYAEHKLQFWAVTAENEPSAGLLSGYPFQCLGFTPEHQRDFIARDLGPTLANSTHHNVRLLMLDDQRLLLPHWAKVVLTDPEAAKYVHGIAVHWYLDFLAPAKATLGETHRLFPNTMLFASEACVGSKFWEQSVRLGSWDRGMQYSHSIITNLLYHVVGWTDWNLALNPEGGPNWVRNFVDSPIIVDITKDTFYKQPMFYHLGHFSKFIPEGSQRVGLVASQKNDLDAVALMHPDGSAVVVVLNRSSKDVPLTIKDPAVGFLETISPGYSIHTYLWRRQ

Structure (SMILES)	Potency
O=C(NCc1ccc(Cl)cc1Cl)c1ccccn1	inactive: > 76.9 µM
CCN1CCN(c2ncc(C(=O)Nc3cc(Cl)c(OC)cc3OC)c3ccccc23)CC1	inactive
CC(C)(C)OC(=O)NCCCC(CCCNC(=O)OC(C)(C)C)C(=O)O	inactive: > 76.9 µM
O=C(CSc1nc(O)cc(=O)[nH]1)Nc1ccc2c(c1)CCC2	inactive: > 76.9 µM
O=C(OCCCN1C(=O)c2ccccc2C1=O)c1ccco1	inactive: > 76.9 µM
CCC(=O)N(Cc1cc2ccccc2[nH]c1=O)C(C)C	inactive: > 76.9 µM
N#C/C(=C1\CCCN1)c1nc2ccccc2c(=O)[nH]1	inactive: > 76.9 µM
O=C(Nc1nncs1)C1c2ccccc2Oc2ccccc21	inactive: > 76.9 µM
COc1cccc(-c2nn(C)c3sc(C(=O)N4CCN(c5ccccn5)CC4)cc23)c1	inactive: > 76.9 µM
CCn1c(=O)c(C(=O)NCc2ccc(OC)c(OC)c2)c(O)c2ccccc21	inactive: > 76.9 µM
O=C(O)CCC(=O)NCC1OCCc2ccccc21 (stereo unspecified)	inactive: > 76.9 µM
CCOC(=O)c1sc(NC(=O)CSc2nnc(-c3ccco3)o2)c(C(=O)OCC)c1C	inactive: > 76.9 µM
CCC(=O)N1CCc2cc(S(=O)(=O)CCC(=O)NCCc3ccc(OC)c(OC)c3)ccc21	inactive: > 76.9 µM
O=C(CCC(=O)c1cccs1)OCC(=O)N1CCN(S(=O)(=O)c2ccccc2)CC1	inactive: > 76.9 µM
Cc1occc1C(=O)NC(C)C1CCCO1 (stereo unspecified)	inactive: > 76.9 µM
CC(C)(C)OC(=O)N1CCCC1C(=O)O (stereo unspecified)	inactive: > 76.9 µM
CCOc1ccc(NS(=O)(=O)c2ccc3c(c2)CCN3C(=O)CCC(=O)O)cc1	inactive: > 76.9 µM
CCOC(=O)C1CCCN(C(=O)c2cc(Nc3ccc(OC)c(OC)c3)nc3ccccc23)C1 (stereo unspecified)	inactive: > 76.9 µM
Cc1cc(C)nc(N2CCCC(C(=O)NCCc3cccc(F)c3)C2)n1 (stereo unspecified)	inactive: > 76.9 µM
CN(C(=O)c1cccc(C#N)c1)c1nnc(C2CCOC2)s1 (stereo unspecified)	inactive: > 76.9 µM
Cc1nn(-c2ccccc2)cc1/C=N/O	inactive: > 76.9 µM
CC(Oc1ccccc1)C(=O)Nc1ccc(S(=O)(=O)NCC2CCCO2)cc1 (stereo unspecified)	inactive: > 76.9 µM
Clc1ccc(-c2nn3c(Cn4cnc5ccccc54)nnc3s2)c(Cl)c1	inactive: > 76.9 µM

Structure (SMILES)	Potency
O=C(Cn1cnc2ccccc2c1=O)NCCC(=O)Nc1ccc2c(c1)OCCO2	inactive: > 76.9 µM
COc1cc(C)c(S(=O)(=O)n2ccc(C)n2)cc1C	inactive: > 76.9 µM
CCOC(=O)CNC(=O)c1nn(-c2cccc(OC)c2)c(=O)c2ccccc12	inactive: > 76.9 µM
O=C(CSc1n[nH]c(-c2ccc(S(=O)(=O)NC3CCCCC3)cc2)n1)N1CCCC1	inactive
Cc1ccccc1Cn1ccc(NC(=O)c2cc3nc(-c4ccco4)cc(C(F)(F)F)n3n2)n1	inactive: > 76.9 µM
Cc1ccc2nsnc2c1S(=O)(=O)N1CCN(C(=O)C2CCCO2)CC1 (stereo unspecified)	inactive: > 76.9 µM
COc1ccc(-c2cc(C(=O)N3CCOCC3)c3cc(C)ccc3n2)cc1	inactive: > 76.9 µM
O=C(Nc1nc2c(s1)CCCC2=O)c1cnccn1	inactive: > 76.9 µM
CCOc1ccccc1NC(=O)C1Cc2ccccc2CN1S(C)(=O)=O (stereo unspecified)	inactive: > 76.9 µM
COC(=O)C1CCN(C(=O)C23CCC(C)(C(=O)O2)C3(C)C)CC1 (stereo unspecified)	inactive: > 76.9 µM
COc1cc(NC(=O)c2cccs2)c(OC)cc1NC(=O)c1ccco1	inactive: > 76.9 µM
COc1ccc(NS(=O)(=O)c2cccc(C(=O)O)c2)cc1	inactive: > 76.9 µM
COc1cc(C(=O)N2CCC(NC(=O)C(Cc3ccc(C)cc3)NC(C)=O)CC2)cc(OC)c1OC (stereo unspecified)	inactive: > 76.9 µM
CC(=O)c1ccc(N2C(=O)[C@@H]3C(CCC(N)=O)NC4(C(=O)Nc5c4ccc(Cl)c5C)[C@@H]3C2=O)cc1 (stereo partly specified)	inactive: > 76.9 µM
CC(C)(C)n1nnnc1C(c1cccnc1)N1CCN(C2CCCCC2)CC1 (stereo unspecified)	inactive: > 76.9 µM
CC(=O)Nc1c(O)nc(SCC(=O)Nc2nnc(CC(C)C)s2)[nH]c1=O	inactive: > 76.9 µM
CCOc1ccccc1C(=O)NCc1ccco1	inactive: > 76.9 µM
COc1ccc(CNC(=O)c2noc3c2CCCC3)cc1	inactive: > 76.9 µM
COc1cccc(C2Nc3ccccc3C(=O)N2O)c1O (stereo unspecified)	inactive: > 76.9 µM
CCNC(=O)COC(=O)c1ccc(S(=O)(=O)N2CCCCCC2)cc1	inactive: > 76.9 µM
C=CCn1cc(C(=O)NCCCOC)c(=O)c2cc(S(=O)(=O)N(CC)CC)ccc21	inactive: > 76.9 µM
COC(=O)c1cn(NC(=O)c2ccncc2)c(=O)c2ccccc12	inactive: > 76.9 µM
Nc1cc(Br)c(N)c(Br)c1	inactive: > 76.9 µM

Structure (SMILES)	Potency
CC(=O)Nc1nc(C=C(Cl)Cl)cs1	inactive: > 76.9 µM
COc1ccccc1CC(NC(C)=O)C(=O)NC1CCN(c2nnnn2-c2ccccc2)CC1 (stereo unspecified)	inactive: > 76.9 µM
O=C(O)c1cc(-c2ccncc2)nc2ccc(F)cc12	inactive: > 76.9 µM
CCCCn1c(=NC(=O)c2cccnc2)c(C(=O)OCC)cc2c(=O)n3ccccc3nc21	inactive: > 76.9 µM
Cc1ccc(S(=O)(=O)N2CC(=NO)C2)cc1	inactive: > 76.9 µM
COc1cccc2cc(-c3nnc(SCC(=O)NCc4ccccc4)n3C)oc12	inactive: > 76.9 µM
CSc1nc(N(CCO)CCO)c2sc3nc(-c4ccco4)c4c(c3c2n1)CCC4	inactive: > 76.9 µM
CC(=O)c1cc2c(O)c(O)ccc2o1	inactive: > 76.9 µM
N/C(=N\O)C1COc2ccccc2O1 (stereo unspecified)	inactive: > 76.9 µM
COc1ccc(O)c(C(=O)c2cc(C#N)c(=O)n(-c3c(C)n(C)n(-c4ccccc4)c3=O)c2)c1	inactive: > 76.9 µM
CC(C)(C)c1nnc2sc(SCC(=O)N3CCCc4ccccc43)nn2c1=O	inactive: > 76.9 µM
O=C(CN1C(=O)CCC1=O)Nc1ccc(S(=O)(=O)N2CCOCC2)cc1	inactive: > 76.9 µM
O=C(NC1CCCCC1)c1ccc(Cn2cc(Br)cn2)o1	inactive: > 76.9 µM
Cc1nc(SCC(=O)NCc2ccco2)c2oc3ccccc3c2n1	inactive: > 76.9 µM
CCOC(=O)CN(C(=O)Cn1nnc2ccccc21)C(C(=O)NCCOC)c1ccccc1C (stereo unspecified)	inactive: > 76.9 µM
CCOC(=O)C1=C(C)NC(=O)C(C#N)C1c1ccncc1 (stereo unspecified)	inactive: > 76.9 µM
CCC(CC)C(=O)Nc1cccc(C(=O)N2CCCC2)c1	inactive: > 76.9 µM
CN(C)S(=O)(=O)Nc1ccc2c(c1)OCO2	inactive: > 76.9 µM
COc1ccc(N2CCN(C(=O)CSc3nnc(COc4cccc5cccnc45)o3)CC2)cc1	inactive: > 76.9 µM
OCC1N=C(c2ccccn2)OC1c1ccccc1 (stereo unspecified)	inactive: > 76.9 µM
CCOc1ccc(NC(=O)CCN2CCN(c3ccccc3OC)CC2)cc1	inactive: > 76.9 µM
CS(=O)(=O)c1sc2nc(-c3cccs3)cc(-c3ccccc3)c2c1N	inactive: > 76.9 µM
COC(=O)C1=C(N)Oc2cc(C)n(Cc3cccnc3)c(=O)c2C1c1cc(OC)ccc1OC (stereo unspecified)	inactive: > 76.9 µM

Structure (SMILES)	Potency
Cc1noc(C)c1C(=O)Nc1ccc(Cl)cc1C(F)(F)F	inactive: > 76.9 µM
CC(C)=CC(=O)N1CCCc2ccccc21	inactive: > 76.9 µM
O=C(Nc1ccc2c(c1)OCCO2)c1ccc2nccnc2c1	inactive: > 76.9 µM
O=c1cc(N2CCN(Cc3ccccc3)CC2)[nH]c(=O)n1Cc1ccc(F)cc1	inactive: > 76.9 µM
O=C(CSc1ccccn1)N1CCN(C(=O)CSc2ccccn2)CC1	inactive: > 76.9 µM
Cc1csc(CCc2nc(C)cs2)n1	inactive: > 76.9 µM
CC1CCCCC1NC(=O)c1cn(C)c2ccc(S(=O)(=O)N3CCCC3)cc2c1=O (stereo unspecified)	inactive: > 76.9 µM
Cc1ccc(S(=O)(=O)CC(=O)N2CCCCCC2)cc1	inactive: > 76.9 µM
C=CCNC(=O)c1cc(-c2ccc(Br)cc2)on1	inactive: > 76.9 µM
O=C(CCSc1nc2ccccc2o1)N1CCOCC1	inactive: > 76.9 µM
O=C(CCc1nc(-c2ccc(Cl)cc2)no1)OCc1ccc(Br)cc1	inactive: > 76.9 µM
CCC(=O)Nc1cc(C(C)C)c(O)cc1C	inactive: > 76.9 µM
CCOC(=O)N1CCN(C(=O)Nc2ccccc2Cl)CC1	inactive: > 76.9 µM
NS(=O)(=O)c1ccc(CCNC(=O)CCC2COc3ccccc3O2)cc1 (stereo unspecified)	inactive: > 76.9 µM
OCCCN1c2ccccc2Nc2nnc(-c3ccccc3)cc21	inactive: > 76.9 µM
O=C(Cc1c(F)cccc1Cl)Nc1ccon1	inactive: > 76.9 µM
O=C(c1noc2c1CCc1ccccc1-2)N1CCOCC1	inactive: > 76.9 µM
CC(C)(C)NC(=O)c1ccc(COCC(F)(F)F)o1	inactive: > 76.9 µM
COc1ccccc1NC(=O)c1ccccc1NS(=O)(=O)N1CCCC1	inactive: > 76.9 µM
CCOC(=O)Nc1nnc(-c2ccc(OC)c(OC)c2)s1	inactive: > 76.9 µM
CCc1ccc2[nH]c(=O)c(C(c3nnnn3CCOC)N3CCN(c4ccc(F)cc4)CC3)cc2c1 (stereo unspecified)	inactive: > 76.9 µM
COc1cc(-c2nnc(SCC(=O)c3cc(C)n(CC4CCCO4)c3C)o2)cc(OC)c1OC (stereo unspecified)	active: 13.2 µM
